Test results reported in PubChem BioAssay AID686978 (National Center for Advancing Translational Sciences (NCATS), 2013).
The whole screen tested about 420,000 compounds, of which about 64,000 (15%) were called active. This list was built around the results that the source calls inconclusive (neither active nor inactive); the mix of calls is not that of the screen. The call rests on the fitted dose curve; in most records, active means well fitted inhibition curve with a large enough effect; inconclusive means small, poorly fitted or top-dose-only effect; inactive means flat fitted curve, though single readings scatter. Potencies of inconclusive entries are left out as doubtful fits.

Assay: qHTS for Inhibitors of human tyrosyl-DNA phosphodiesterase 1 (TDP1): qHTS in cells in absence of CPT; further: nearly all actives have a fitted effect of over 55% in size
Conditions: DT40 Tdp1-/- hTDP1 cells, no CPT, ATP luminescence, 48 h; activity change, negative = growth inhibition: at 46.2 µM (top of the series) unless noted
In short: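 Cells were dispensed at 400 per well, compounds added by pin tool, plates incubated ≥48 hr at 37 °C, then CellTiter-Glo added for 30 min at room temperature before luminescence reading. Line: DT40 Tdp1-/- complemented with hTDP1; camptothecin omitted.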
On the % scale 0 is the no-effect control and ±100 the full control effect; potency means the concentration at half of the fitted maximal effect; tags describe the fitted curve by direction and shape.

Row | SMILES | Potency | activity change, negative = growth inhibition
1 | O=C(CNS(=O)(=O)c1ccc2ccccc2c1)OCC(=O)c1ccc(Br)s1 | inconclusive [inhibitor, partial curve, poor fit] | –
2 | COc1ccc(CNC(=O)C2=Cc3cccc(OC)c3OC2)cc1OC | inactive | –
3 | CCN(CC)C(=O)[C@H]1C[C@H](CC(=O)NCCCn2ccnc2)C(=O)N2CCc3c([nH]c4ccc(Cl)cc34)[C@]12C | inconclusive [inhibitor, single point] | –
4 | Cc1noc(C)c1-c1ccc(C(=O)NCc2ccccc2)c2occc12 | inconclusive [inhibitor, single point] | –
5 | COc1cc([C@H]2OC[C@H]3[C@@H]2CO[C@H]3c2ccc(O)c(OC)c2)ccc1O | inactive | –
6 | CCCc1cc(=O)oc2cc(OCC(=O)Nc3ccccn3)ccc12 | inconclusive [inhibitor, single point] | –
7 | COc1ccc(OC)c(-c2cc(C(=O)Nc3cccc(Cl)c3)no2)c1 | inactive | –
8 | Cc1ccc(S(=O)(=O)Nc2ccc3c(c2)CCCN3C(=O)c2cccs2)cc1C | active: 16.4 µM | –
9 | O=C(Nc1cc(Cl)cc(Cl)c1)C(NCCO)c1ccccc1 (stereo not given) | inconclusive [inhibitor, single point] | –
10 | CCc1ccc(CNC(=O)c2ccc(-n3c(C)cc4c3CCC(C)C4)cc2)cc1 (stereo not given) | active: 20.6 µM | –
11 | COc1ccc(NS(=O)(=O)c2ccc(NC(=O)c3ccc(CN4CCOCC4)cc3)cc2)cc1 | active: 23.1 µM | –
12 | O=C(COc1ccc(S(=O)(=O)N2CCOCC2)cc1)Nc1cccc([N+](=O)[O-])c1 | inactive | –
13 | Cc1ccc(S(N)(=O)=O)cc1NC(=O)c1ccc2c3c(cccc13)CC2 | inconclusive [inhibitor, partial curve, poor fit] | –
14 | COc1cccc(C(c2sc3nc(-c4ccco4)nn3c2O)N2CCC3(CC2)OCCO3)c1 (stereo not given) | inactive | –
15 | COc1ccccc1-c1sc2cc3c(cc2c1-c1ccc(O)cc1)OCO3 | inconclusive [inhibitor, single point] | –
16 | Cc1ccccc1NS(=O)(=O)c1cc2c(cc1C)N(C)CCO2 | inconclusive [inhibitor, single point] | –
17 | COc1ccc(-c2nn(-c3ccccc3)cc2/C=C2/SC(=S)N(CCC(=O)O)C2=O)cc1 | inconclusive [inhibitor, single point] | –
18 | ON=C1c2ccccc2-c2ccc(Br)cc21 | active: 23.1 µM | –
19 | CCc1nn(CC(=O)NCCN(CC(C)C)CC(C)C)c(=O)c2cc3sc(C)cc3n12 | active: 20.6 µM | –
20 | COc1ccc(-n2cc(-c3ccccc3)c3c(NCCCN4CCOCC4)ncnc32)cc1 | inconclusive [inhibitor, single point] | –
21 | Cc1ccc(-c2csc(NCCn3c(C)nc4cc(C(F)(F)F)ccc43)n2)cc1 | inconclusive [inhibitor, single point] | –
22 | Cc1cc(C(=O)Nc2cc(S(C)(=O)=O)ccc2Cl)c(C)o1 | inactive | –
23 | COC(=O)c1ccc2c(=O)n(Cc3ccco3)c(SCC(=O)Nc3ccc(C)c(Cl)c3)nc2c1 | active: 20.6 µM | –
24 | Clc1ccc2nc(-c3ccccc3)c(CC3CCCCC3)n2c1 | inconclusive [inhibitor, single point] | –
25 | COC(=O)C1=C(C)N(Cc2ccco2)C(=O)/C1=C\c1ccc(N(C)C)cc1 | – | inconclusive: -36.6% [inhibitor]

Row | SMILES | Potency | activity change, negative = growth inhibition
26 | Cc1cccc(NC(=O)C(Cc2ccccc2)N2Cc3ccccc3C2=O)c1C (stereo not given) | inactive | –
27 | O=C(O)c1cc(Br)ccc1NS(=O)(=O)c1cccc2nsnc12 | inactive | –
28 | CN1CCN(S(=O)(=O)c2cccc(C(=O)N(Cc3ccccc3)c3ccccc3)c2)CC1 | inconclusive [inhibitor, single point] | –
29 | COc1cc2c(cc1OC)CN(CC(=O)Nc1ccc(C)cc1)CC2 | inactive | –
30 | CCCNC(=O)c1cc(C2CCCCN2S(=O)(=O)c2ccc(OC)cc2)on1 (stereo not given) | inconclusive [inhibitor, single point] | –
31 | Cc1ccc(C(=O)NCCN2CCC(n3c(=O)[nH]c4ccccc43)CC2)cc1 | inconclusive [inhibitor, single point] | –
32 | CC(=O)N1CCc2cc(S(=O)(=O)NCCC(=O)Nc3cccc(C)c3)ccc21 | inactive | –
33 | O=C(CN1CCN(C/C=C/c2ccccc2)CC1)NCc1ccccc1 | inconclusive [inhibitor, single point] | –
34 | CCOC(=O)C1(CCOC)CCN(C(=O)c2ccc(CSC)o2)CC1 | inactive | –
35 | O=C(Nc1ccc(Oc2cccnc2)cc1)C1CCN(Cc2cccc(Cl)c2)CC1 | inconclusive [inhibitor, single point] | –
36 | Cc1cc(=O)[nH]c(N=N/C(=N/Nc2ccccc2C)c2ccccc2)n1 | active: 5.17 µM | –
37 | O=C(CCNS(=O)(=O)c1ccccc1C(F)(F)F)NNC(=O)c1csc(N2CCOCC2)n1 | inactive | –
38 | O=[N+]([O-])c1ccc2nc(-c3ccc(OC(F)F)cc3)cn2c1 | inactive | –
39 | CCOC(=O)c1nnc(-c2ccc(C)cc2)nc1Oc1ccc(Cl)cc1Cl | active: 16.4 µM | –
40 | O=C(CCCc1c[nH]c2ccccc12)NCC1COc2ccccc2O1 (stereo not given) | inconclusive [inhibitor, single point] | –
41 | CCC1(C)N(O)C(C)(C)C(c2ccc(F)cc2)=[N+]1[O-] (stereo not given) | inactive | –
42 | CC1(C)Cc2c(cnn2-c2ccccc2)C(NC(=O)CCc2ccncc2)C1 (stereo not given) | inactive | –
43 | C=CCNC(=O)CSc1ncc2c(n1)-c1c(csc1SC)CC2 | inconclusive [inhibitor, single point] | –
44 | COc1cccc(/C=N/Nc2ncnc(Cl)c2N)c1O | active: 0.517 µM | –
45 | COc1ccccc1C(=O)NC(=O)COC(=O)c1ccc(Cl)nc1 | inactive | –
46 | CCS(=O)(=O)N1CCc2cc(C(=O)Nc3cccc(NC(C)=O)c3)ccc21 | inconclusive [inhibitor, single point] | –
47 | FC(F)Oc1ccc(-n2cc(-c3ccc(Cl)cc3)[n+]3c2CCCCC3)cc1 | active: 4.61 µM | –
48 | O=[N+]([O-])c1ccc(Nc2ccccc2)c2nonc12 | inconclusive [inhibitor, single point] | –
49 | O=C(Cn1ncc2c1-c1ccccc1OC2)Nc1ccc(S(=O)(=O)N2CCCCC2)cc1 | inconclusive [inhibitor, single point] | –
50 | COc1ccc(-c2ccc(=O)n(CC(=O)Nc3ccccc3C(F)(F)F)n2)cc1 | inactive | –

Row | SMILES | Potency | activity change, negative = growth inhibition
51 | Cc1c(C(=O)Nc2cccc(F)c2)cnn1-c1ccccc1 | active: 14.6 µM | –
52 | O=C(NNc1ccccc1)OCc1ccccc1 | inconclusive [inhibitor, single point] | –
53 | O=C(Nc1c(C(=O)N2CCN(c3ccccc3F)CC2)oc2ccccc12)c1ccc(Br)o1 | inconclusive [inhibitor, single point] | –
54 | Cc1cc(NC(=O)CSCC(=O)N(c2cccc(Cl)c2)C(C(=O)NC2CCCCC2)c2ccc(O)c(O)c2)no1 (stereo not given) | inconclusive [inhibitor, partial curve] | –
55 | Oc1ccccc1-c1nc2ccc(Cl)cn2c1Nc1ccc2c(c1)OCCO2 | active: 23.1 µM | –
56 | CCOc1ccccc1/C=N/Nc1ccnc(=O)[nH]1 | active: 2.91 µM | –
57 | Cc1ccc(C2c3[nH]c4ccccc4c3CCN2C(=O)CSc2ccccc2)cc1 (stereo not given) | inconclusive [inhibitor, single point] | –
58 | Cc1noc(C)c1CC(=O)NC1CC(C)(C)Cc2c1cnn2-c1ccccc1 (stereo not given) | inconclusive [inhibitor, single point] | –
59 | CC(C)C(NS(=O)(=O)c1ccc2c(c1)Cc1cc(S(=O)(=O)NC(C(=O)O)C(C)C)ccc1-2)C(=O)O (stereo not given) | inactive | –
60 | Cc1ccc(S(=O)(=O)NCC(=O)NNC(=O)c2ccc(Br)cc2)cc1C | inactive | –
61 | COc1ccccc1CN(C)C(=O)c1cc2ccccc2o1 | inconclusive [inhibitor, partial curve] | –
62 | Cc1nn(-c2ccc(Cl)cc2)c(Cl)c1/C=C(\C#N)C(N)=O | inconclusive [inhibitor, single point] | –
63 | Nc1ccc(Oc2ccc([N+](=O)[O-])cc2[N+](=O)[O-])cc1 | inconclusive [inhibitor, single point] | –
64 | COCC1CCCCN1Cc1cn(-c2ccccc2)nc1-c1ccc2c(c1)OCO2 (stereo not given) | inconclusive [inhibitor, single point] | –
65 | Cc1cc(C(=O)NCc2ccc(C(=O)O)o2)c(C)o1 | inactive | –
66 | Cc1ccc(-c2nc3ccccc3nc2NN)cc1 | inactive | –
67 | CC(=O)c1cc(C#N)c(SCC(=O)C(C)(C)C)nc1C | active: 3.16 µM | –
68 | CN1CC[n+]2cnc3ccccc3c21 | inactive | –
69 | Clc1ccccc1CSc1nncn1NC/C=C/c1ccccc1 | inconclusive [inhibitor, partial curve] | –
70 | CCc1nc2c(OCc3c(C)noc3C)cccn2c1N(C)C(=O)C(C)C | inconclusive [inhibitor, partial curve] | –
71 | CCC(C)CCN1C(Nc2ccccc2)=NC[C@@H]1Cc1ccccc1 (stereo not given in full) | active: 16.4 µM | –
72 | O=C(Nc1ccccc1F)C(c1ccccc1)c1ccccc1 | – | inconclusive: -31.4% [inhibitor]
73 | O=C(NC1CCCCC1)C(C1CC1)N1CCc2ccccc2C1 (stereo not given) | inactive | –
74 | COc1ccccc1-c1sc2cc3c(cc2c1-c1ccc(OCCN2CCCCC2)cc1)OCO3 | active: 11.6 µM | –
75 | CCc1nn2c(=O)cc(COC(=O)c3ccccc3NC(=O)c3ccc(C(C)(C)C)cc3)nc2s1 | inactive | –
